Experimental data as given in PubChem BioAssay AID624296 (National Center for Advancing Translational Sciences (NCATS), 2012).
Screen size: about 350,000 compounds; about 9,900 (2.8%) were called active. Inconclusive means that the source gave no clear call. Such entries were picked first, then a sample of the others. Calls follow the shape of the dose curve; as a rule, active = well fitted activation curve with a large enough effect; inconclusive = small, poorly fitted or top-dose-only effect; inactive = no such curve, though single readings can be large or run the other way. Potencies of inconclusive entries are left out as doubtful fits.

assay: A quantitative high throughput screen for small molecules that induce DNA re-replication in MCF 10a normal breast cells.; also: nearly all actives have a fitted effect of over 50% in size; conditions: MCF 10A DNA re-replication, Hoechst nuclear intensity, 48 h; series mostly up to 46.1 µM
Potency is read from the fitted curve at half-maximal effect; tags tell the direction and shape of the fitted curve.

Row | SMILES | Potency
1 | CC1(C)Cc2c(sc(NC(=O)c3ccc4c(c3)OCCO4)c2C(N)=O)C(C)(C)N1 | inactive
2 | N#C/C(=C\c1ccccc1[N+](=O)[O-])C(=O)NCc1ccccc1 | inconclusive [activator, single point]
3 | COc1ccc(C)cc1NC(=O)C1CCN(S(C)(=O)=O)CC1 | inactive
4 | Cc1ccc(-c2nc3cccnc3s2)cc1NS(=O)(=O)c1ccc2c(c1)CCCC2 | inconclusive [activator, full curve, poor fit]
5 | O=C1c2cnc3nc(SCc4ccc(Cl)cc4)nn3c2CC2c3ccccc3CCN12 (configuration not stated) | active: 3.26 µM
6 | Cc1ccc(S(=O)(=O)N(c2ccc(Br)cc2)C2C=CS(=O)(=O)C2)cc1 (configuration not stated) | inactive
7 | CCOC(=O)c1cc(CC)sc1NC(=O)CN1CCN(C(=O)C2CCCO2)CC1 (configuration not stated) | inconclusive [activator, single point]
8 | O=C(CSCCO)Nc1ccc(C23CC4CC(CC(C4)C2)C3)cc1 | inconclusive [activator, single point]
9 | O=[N+]([O-])c1ccc(CN2CCC(Cc3ccccc3)CC2)cc1 | inactive
10 | CCOc1cc(/C=C2\SC(=N)N(c3nonc3N)C2=O)ccc1OCC(N)=O | inconclusive [activator, single point]
11 | COc1ccc(S(=O)(=O)Cc2ccc(C(=O)N3CCN(c4cc(Cl)ccc4C)CC3)o2)cc1 | inconclusive [activator, single point]
12 | Cc1cnc(NC(=O)c2ccc3c(c2)OCCO3)s1 | active: 2.91 µM
13 | COc1ccc(C2CC(c3ccccc3Br)=NN2c2ccc(S(N)(=O)=O)cc2)cc1 (configuration not stated) | inconclusive [activator, partial curve, poor fit]
14 | O=c1c2sccc2n(Cc2cccc(F)c2)c(=O)n1-c1ccc(F)cc1 | inconclusive [activator, full curve, poor fit]
15 | Cc1ccc(C(=O)NCC(=O)OCCCOC(=O)CNC(=O)c2ccc(C)c(C)c2)cc1C | inactive
16 | CCOC(=O)C(=O)NCC(c1cccs1)S(=O)(=O)c1ccc(F)cc1 (configuration not stated) | inactive
17 | CCn1c(NC2CCCCC2)nc2ccccc21 | inconclusive [activator, partial curve, poor fit]
18 | CN(C)S(=O)(=O)c1ccc(Cl)c(C(=O)Nc2cccc([N+](=O)[O-])c2)c1 | inactive
19 | CCOc1ccc(S(=O)(=O)N(CC(=O)N/N=C/c2ccc(-c3ccc([N+](=O)[O-])cc3)o2)c2ccccc2)cc1 | active: 0.82 µM
20 | FC(F)(F)C(Oc1nc(Nc2ccc(Cl)cc2)nc(N2CCOCC2)n1)C(F)(F)F | inconclusive [activator, full curve, poor fit]
21 | COc1cc(/C=N/NC(=O)COc2cccc(F)c2)ccc1OS(=O)(=O)c1ccc(C)cc1 | inconclusive [activator, partial curve]
22 | CN(C(=O)Cn1cc([N+](=O)[O-])ccc1=O)C1CCCCC1 | inactive
23 | CCc1nnc(NC(=O)COC(=O)CN2C(=O)c3ccccc3C2=O)s1 | inconclusive [activator, partial curve]

Row | SMILES | Potency
24 | Cc1ccc(NC(=O)c2sccc2SCc2cccc(C(F)(F)F)c2)cc1 | inconclusive [activator, single point]
25 | CC(=O)c1ccc(N2CCN(C(=O)c3cc(-c4ccc5c(c4)OCO5)nc4ccccc34)CC2)cc1 | inconclusive [activator, partial curve, poor fit]
26 | COc1cc2nc(Nc3ccc(C)c(C)c3)nc(N)c2cc1OC | inconclusive [activator, partial curve, poor fit]
27 | O=Nc1nc2ncccn2c1-c1ccccc1 | active: 13 µM
28 | COc1cc2[nH]c(=S)nc(NCCc3ccc(C)cc3)c2cc1OC | active: 23.1 µM
29 | Cc1ccc(SCC(=O)N(Cc2nc(-c3ccccc3)no2)C(C)C)cc1 | inconclusive [activator, single point]
30 | CCCCCCCCCCSc1n[nH]c(N)n1 | inconclusive [activator, single point]
31 | COc1ccc(OC)c(S(=O)(=O)N2CCC(C(=O)Nc3cc(C)ccc3C)CC2)c1 | inconclusive [activator, full curve]
32 | COc1ccc2cc(CCOC3CCCCO3)ncc2c1 (configuration not stated) | inactive
33 | O=C(CC(C(=O)O)P(=O)(c1ccccc1)c1ccccc1)c1ccccc1 (configuration not stated) | inactive
34 | CC1CCCN(C(C(=O)Nc2ccc(C(C)C)cc2)c2ccc3c(c2)OCO3)C1 (configuration not stated) | inconclusive [activator, single point]
35 | c1ccc2oc(-c3csc(N4CCOCC4)n3)cc2c1 | inconclusive [activator, partial curve, poor fit]
36 | C=CCn1c(SCC(=O)Nc2sccc2C(N)=O)nc2sc(CC)cc2c1=O | inconclusive [activator, full curve, poor fit]
37 | Cc1ccc(C(=O)c2ccc(N3CCN(C)CC3)c([N+](=O)[O-])c2)cc1 | inconclusive [activator, partial curve, poor fit]
38 | CC(=O)Nc1ccc(NC(=S)NC(=O)C2CC2)cc1 | inconclusive [activator, single point]
39 | O=c1cc(-c2cccc(F)c2)[nH]c2ccccc12 | active: 1.3 µM
40 | COc1ccc(C(=O)c2c(C(F)(F)F)oc3c2C(=O)c2ccccc2C3=O)cc1OC | inconclusive [activator, full curve, poor fit]
41 | COc1ccc(-c2csc3ncnc(N4CCN(S(=O)(=O)c5cccc(F)c5)CC4)c23)cc1 | inactive
42 | Cc1ccc(-c2c(C(=O)N(C)Cc3ccccc3)oc(=O)c3ccccc23)cc1 | inconclusive [activator, full curve]
43 | CC(C)NS(=O)(=O)c1ccc(NC(=O)C(C)Oc2ccc(C(=O)c3ccccc3)cc2)cc1 (configuration not stated) | inconclusive [activator, partial curve, poor fit]
44 | CSc1ccc(CNC(=O)Cn2nc(C)c3c(C)n(-c4ccc(C)cc4)nc3c2=O)cc1 | inconclusive [activator, partial curve, poor fit]
45 | COc1ccc(CN2C(=O)[C@H]3Cc4c([nH]c5ccccc45)C(C)(C)N3C2=O)cc1 | active: 9.2 µM
46 | CC(C)(C)Nc1nc2nonc2nc1NC(C)(C)C | inactive

Row | SMILES | Potency
47 | COCCN1C(=O)/C(=C/c2ccc(OCc3ccc(C(=O)O)cc3)c(OC)c2)SC1=Nc1ccccc1 | inconclusive [activator, full curve, poor fit]
48 | O=C(N/C(=C\c1ccc(Br)cc1)c1nc2ccccc2[nH]1)c1ccco1 | inactive
49 | COc1ccc(/C(N)=N/OC(=O)c2cccc([N+](=O)[O-])c2C)cc1OC | inconclusive [activator, partial curve, poor fit]
50 | O=C(COC(=O)c1ccc2c(c1Cl)C(=O)c1ccccc1C2=O)NC1CC1 | inconclusive [activator, single point]
51 | Cc1cc(NO)c(C(C)C)cc1N=O | inconclusive [activator, single point]
52 | COC(=O)/C=C1/SC(=Nc2ccc(Cl)c(Cl)c2)NC1=O | active: 25.9 µM
53 | CCCC(=O)Nc1ccc(NC(=S)NC(=O)c2ccccc2[N+](=O)[O-])cc1 | inconclusive [activator, single point]
54 | CCOc1cccc2cc(C(=O)NCc3ccccc3Cl)c(=O)oc12 | inconclusive [activator, partial curve, poor fit]
55 | CC1=C/C(=C(/c2cc(C)c(O)c(Br)c2)c2ccccc2S(=O)(=O)O)C=C(Br)C1=O | inactive
56 | N#CCC(=O)Nc1ccc(C(=O)NNC(=S)NC2CCCCC2)cc1 | inactive
57 | COc1cc(CCC(=O)Nc2cccc(C(F)(F)F)c2)cc(OC)c1OC | inconclusive [activator, single point]
58 | C=CCNC(=O)c1c(CS(=O)(=O)c2ccccc2)noc1C(=O)NCc1ccccc1 | inconclusive [activator, full curve, poor fit]
59 | CC(C)=NNc1nc(-c2ccccc2)cs1 | inconclusive [activator, single point]
60 | CC(C)OC(=O)CCCCCN1C(=O)CSC1=S | inconclusive [activator, partial curve, poor fit]
61 | COC(=O)c1ccc(COc2ccc(/C=N/NC(=O)C(=O)Nc3ccc(OC)cc3)cc2OC)o1 | inconclusive [activator, partial curve, poor fit]
62 | COC(=O)c1c(C)nn(-c2ccccc2)c1-n1cccc1 | inconclusive [activator, partial curve, poor fit]
63 | CCCC1=Nc2cc(C(=O)NCCCOC(C)C)ccc2Sc2ccccc21 | active: 2.59 µM
64 | CCOc1ccc(OCC)c(Nc2cc(C)nc3nc(C)nn23)c1 | inconclusive [activator, single point]
65 | O=c1[nH]cc(S(=O)(=O)Nc2ccc3c(c2)OCO3)c(=O)[nH]1 | inconclusive [activator, single point]
66 | O=[N+]([O-])c1cccc(-c2ccc(CN3CCN(c4ccccc4)CC3)o2)c1 | inconclusive [activator, partial curve, poor fit]
67 | CC(=O)c1c(C)[nH]c(C(=O)Nc2cccc3ccccc23)c1C | inactive
